In PubChem BioAssay (Tox21):
Several values for one entry are separate records, joined by “and”; a condition that tells them apart may be missing. Equal entries are not always repeated. Inconclusive means that the source gave no clear call. Such entries were picked first, then a sample of the others. For some of these results: Potencies beside an inconclusive call are fits to weak or partial responses and may not hold up. Activity calls are given as the source filed them. Unless noted, calls come from the whole dose curve; as a rule, active = well fitted cell-killing curve with a large enough effect in the repeat runs; inconclusive = weak or mixed curves, or effect the other way; inactive = no such curve, though single readings can be large or run the other way.

Legend:
[1] = qHTS assay to identify small molecule agonists of the farnesoid-X-receptor (FXR) signaling pathway - cell viability counter screen (AID 743218); conditions: FXR-bla HEK293T viability, CellTiter-Glo luminescence, 16 h; viability change, negative = cytotoxic: at 62.6 µM (top of the series) unless noted; note: nearly all actives have a fitted effect of over 45% in size
Procedure, shortened: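 After 16 h at 37 C with test compounds, FXR-bla HEK 293T cells were given LiveBLAzer B/G substrate for 2 h at RT and then CellTiter-Glo; luminescence was taken after 30 min.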

[2] = molecular target: Bile acid receptor (Homo sapiens) (UniProt Q96RI1); experiment: qHTS assay to identify small molecule agonists of the farnesoid-X-receptor (FXR) signaling pathway (AID 743220; active = well fitted activation curve with a large enough effect in the signal ratio in the repeat runs, not every such curve was filed as active; inconclusive = weak or mixed curves, or effect the other way; the % refers to the signal ratio; for activation: % is set by controls: 0 for no effect and ±100 for the full control effect); conditions: HEK293T FXR-UAS-bla, beta-lactamase FRET ratio, 16 h; activation: at 62.6 µM (top of the series) unless noted
Procedure, shortened: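 Beta-lactamase reporter under UAS control in GeneBLAzer FXR HEK 293T cells (5000/well) measured with LiveBLAzer FRET substrate after 2 h at room temperature. Compound exposure lasted 16 h at 37C.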

[3] = qHTS assay to identify small molecule antagonists of the farnesoid-X-receptor (FXR) signaling pathway - cell viability counter screen (AID 743221; active = well fitted cell-killing curve with a large enough effect in the repeat runs, not every such curve was filed as active; inconclusive = weak or mixed curves, or effect the other way; inactive = no such curve, though single readings can be large or run the other way; note: nearly all actives have a fitted effect of over 50% in size); conditions: FXR-bla HEK293T viability, CellTiter-Glo luminescence, 16 h; activity change, negative = cytotoxicity: at 62.6 µM (top of the series) unless noted
Procedure, shortened: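 FXR-UAS-bla HEK 293T cells were treated with test compounds plus chenodeoxycholic acid (50 uM final) for 16 h at 37 C. Cell viability in the same wells was then read as CellTiter-Glo luminescence after 30 min at room temperature.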

[4] = molecular target: Vitamin D3 receptor (Homo sapiens) (UniProt P11473); experiment: qHTS assay to identify small molecule agonists of the vitamin D receptor (VDR) signaling pathway (AID 743222; calls by dose curve; for activation: % is set by controls: 0 for no effect and ±100 for the full control effect); conditions: HEK293T VDR-UAS-bla, beta-lactamase FRET ratio, 16 h; activation: at 63.5 µM (top of the series) unless noted
Procedure, shortened: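 VDR-bla cells were seeded, left 4 h, treated with compounds in DMSO for 16 h, incubated 2 h at RT with B/G FRET substrate, and read for fluorescence.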

[5] = molecular target: Vitamin D3 receptor (Homo sapiens) (UniProt P11473); experiment: qHTS assay to identify small molecule antagonists of the vitamin D receptor (VDR) signaling pathway (AID 743223; active = well fitted inhibition curve with a large enough effect in the signal ratio in the repeat runs, not every such curve was filed as active; inconclusive = weak or mixed curves, or effect the other way; inactive = no such curve, though single readings can be large or run the other way; the % refers to the signal ratio; for activity change, negative = inhibition: % is set by controls: 0 for no effect and ±100 for the full control effect); conditions: VDR-UAS-bla HEK293T, beta-lactamase FRET ratio, 16 h; activity change, negative = inhibition: at 61 µM (top of the series) unless noted
Procedure, shortened: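 VDR-bla cells were plated, incubated 4 h at 37C, then given compound and 1alpha,25-dihydroxyvitamin D3 (3 nM final). After 16 h at 37C, LiveBLAzer B/G FRET substrate was added for 2 h at room temperature and fluorescence read.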

[6] = qHTS assay to identify small molecule antagonists of the vitamin D receptor (VDR) signaling pathway - cell viability counter screen (AID 743225); conditions: VDR-bla HEK293T viability, CellTiter-Glo luminescence, 16 h; viability change, negative = cytotoxic: at 61 µM (top of the series); note: nearly all actives have a fitted effect of over 50% in size
Procedure, shortened: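 VDR-bla HEK 293T cells, 4 h pre-incubation at 37C, then compound plus 1-alpha,25-dihydroxyvitamin D3 (3 nM final) for 16 h. After the beta-lactamase FRET read, CellTiter-Glo was added to the same wells; luminescence after 30 min at room temperature.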

[7] = qHTS assay to identify small molecule agonists of the NFkB signaling pathway (AID 1159509; active = well fitted curve in the direction sought with a large enough effect in the signal ratio in the repeat runs, not every such curve was filed as active; inconclusive = weak or mixed curves, or a change in a side signal; inactive = no such curve, though single readings can be large or run the other way; the % refers to the signal ratio); conditions: NFkB-bla ME-180 cells, beta-lactamase FRET ratio, 5 h; activation: at 61 µM (top of the series) unless noted
Procedure, shortened: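 ME-180 NFkB-bla, 2,000 cells/well, overnight plating; cpd pinned in DMSO, 5 h 37 C; B/G FRET substrate 1.5 h RT; ex 405, em 460/530 nm.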

[8] = qHTS assay to identify small molecule agonists of the NFkB signaling pathway - cell viability counter screen (AID 1159515; calls by dose curve; note: nearly all actives have a fitted effect of over 55% in size)
Procedure, shortened: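 5 hr compound treatment of NFkB-bla ME-180 cells (2,000/well, seeded overnight beforehand), followed by reporter substrate for 1.5 hr. CellTiter-Glo added afterward; luminescence after 30 min RT.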

[9] = qHTS assay to identify small molecule agonists of the endoplasmic reticulum stress response signaling pathway (AID 1159516; active = well fitted activation curve with a large enough effect in the signal ratio in the repeat runs, not every such curve was filed as active; inconclusive = weak or mixed curves, or effect the other way; the % refers to the signal ratio; for activation: % is set by controls: 0 for no effect and ±100 for the full control effect); conditions: ESRE-bla HeLa, ER stress beta-lactamase reporter, 5 h; activation: at 61 µM (top of the series) unless noted
Procedure, shortened: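 Reporter HeLa cells (ESRE-beta-lactamase) underwent 5 hr compound incubation at 37 C and 5% CO2 in quantitative HTS format. Detection followed 2 hr of FRET substrate loading at room temperature.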

[10] = qHTS assay to identify small molecule agonists of the vitamin D receptor (VDR) signaling pathway - cell viability counter screen (AID 743224); note: nearly all actives have a fitted effect of over 50% in size
Procedure, shortened: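 Here cell health was gauged by luminescent ATP detection (CellTiter-Glo, 30 min RT) in VDR-bla cells that had been incubated with test compounds for 16 h at 37C and 5% CO2.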
Potency is the fitted concentration of half-maximal effect; tags give direction and shape of the fitted curve or compound fluorescence and quenching.

Chain of UniProt P11473 (P11473 whole entry, looked up): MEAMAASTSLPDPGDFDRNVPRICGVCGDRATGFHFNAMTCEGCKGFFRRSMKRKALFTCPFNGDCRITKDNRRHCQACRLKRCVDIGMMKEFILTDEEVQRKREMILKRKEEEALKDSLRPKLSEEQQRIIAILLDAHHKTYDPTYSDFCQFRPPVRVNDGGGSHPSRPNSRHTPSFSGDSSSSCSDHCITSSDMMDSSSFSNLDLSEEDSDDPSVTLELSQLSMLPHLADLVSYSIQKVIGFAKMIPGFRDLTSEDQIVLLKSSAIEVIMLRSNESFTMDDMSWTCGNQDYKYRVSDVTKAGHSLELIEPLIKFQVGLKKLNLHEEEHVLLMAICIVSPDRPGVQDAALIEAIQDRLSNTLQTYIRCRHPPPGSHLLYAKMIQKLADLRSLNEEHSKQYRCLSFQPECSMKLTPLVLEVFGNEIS
Chain of UniProt Q96RI1 (Q96RI1 whole entry, looked up): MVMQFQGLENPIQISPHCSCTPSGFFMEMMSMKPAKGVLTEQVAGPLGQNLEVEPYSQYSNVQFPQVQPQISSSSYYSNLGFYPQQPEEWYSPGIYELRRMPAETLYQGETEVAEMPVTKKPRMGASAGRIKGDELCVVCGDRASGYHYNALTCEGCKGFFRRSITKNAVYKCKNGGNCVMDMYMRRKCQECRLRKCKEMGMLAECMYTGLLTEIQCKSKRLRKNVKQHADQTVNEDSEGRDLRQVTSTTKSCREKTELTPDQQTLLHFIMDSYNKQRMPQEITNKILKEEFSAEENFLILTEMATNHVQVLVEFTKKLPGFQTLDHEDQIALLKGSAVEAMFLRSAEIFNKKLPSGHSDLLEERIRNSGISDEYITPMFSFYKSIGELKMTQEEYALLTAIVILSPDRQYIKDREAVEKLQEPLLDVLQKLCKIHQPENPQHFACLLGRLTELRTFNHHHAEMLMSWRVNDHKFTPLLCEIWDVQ

Row | Structure (SMILES) | Potency [1] | Potency [2] | Potency [3] | Potency [4] | activity change, negative = inhibition [5] | Potency [6] | Potency [7] | Potency [8] | Potency [9] | activation [4] | Potency [5] | Potency [10] | activation [9]
1 | CCCOCC(=Nc1ccc(Cl)cc1C(F)(F)F)n1ccnc1 | active: 17.4 µM | inconclusive: 24.5 µM [falling, full curve] | active: 21.9 µM | active: 34.6 µM | inconclusive: -25.9% | active: 12.3 µM | inconclusive: 24.5 µM [falling, partial curve] | active: 30.9 µM | inconclusive: 48.9 µM [falling, partial curve] |  |  |  | 
2 | CCC(C)c1cc([N+](=O)[O-])cc([N+](=O)[O-])c1OC(=O)C=C(C)C (configuration not stated) | inconclusive: 54.9 µM [cytotoxic, partial curve, poor fit] | inactive |  |  |  | inconclusive: 34.7 µM [cytotoxic, partial curve, poor fit] | inconclusive: 54.9 µM | inconclusive: 4.9 µM [rising, full curve] |  | inconclusive: -1.18% | inconclusive: 43.6 µM [fluorescent, partial curve] | inconclusive: 13.8 µM [cytotoxic, full curve] | inconclusive: -3.79%
3 | C[C@@H]1CC[C@@]2(OC1)O[C@H]1[C@@H](O)[C@H]3[C@@H]4CC[C@H]5C[C@@H](O[C@@H]6O[C@H](CO)[C@H](O[C@@H]7O[C@H](CO)[C@@H](O)[C@H](O[C@@H]8OC[C@@H](O)[C@H](O)[C@H]8O)[C@H]7O[C@@H]7O[C@H](CO)[C@@H](O)[C@H](O[C@@H]8O[C@H](CO)[C@@H](O)[C@H](O)[C@H]8O)[C@H]7O)[C@H](O)[C@H]6O)[C@H](O)C[C@]5(C)[C@H]4CC[C@]3(C)[C@H]1[C@@H]2C | active: 26.1 µM | inconclusive: 58.3 µM | active: 23.2 µM |  |  | active: 5.2 µM | inconclusive: 8.24 µM [full curve] | active: 9.25 µM | inconclusive: 13.1 µM [cytotoxic, full curve] |  | active: 32.8 µM |  | 
4 | CC(C)CC(C)Nc1ccc(Nc2ccccc2)cc1 (configuration not stated) | inconclusive: 54 µM [cytotoxic, single point] | inconclusive: 60.6 µM [single point] | inconclusive: 54 µM |  |  | active: 48.2 µM | inconclusive: 48.2 µM [falling, partial curve] | active: 54 µM | inconclusive: 60.6 µM [cytotoxic, single point] | inconclusive: 5.41% | inconclusive: 48.2 µM [rising, partial curve] |  | 
5 | C=CC(=O)OCC(COC(=O)C=C)(COC(=O)C=C)COC(=O)C=C | active: 7.76 µM | inconclusive: 61.6 µM | active: 21.9 µM |  |  | active: 6.92 µM | inconclusive: 12.3 µM [falling, full curve] | inconclusive: 4.9 µM [cytotoxic, full curve] | inconclusive: 17.4 µM [cytotoxic, full curve] |  |  |  | 
6 | C[C@]12Cc3cn[nH]c3C[C@@H]1CC[C@@H]1[C@@H]2CC[C@@]2(C)[C@H]1CC[C@]2(C)O | inconclusive: 23.7 µM [cytotoxic, partial curve] | inactive | active: 33.5 µM |  | inconclusive: 13.6% |  | inconclusive: 26.8 µM [falling, single point] | active: 23.9 µM | inactive |  |  | active: 29.8 µM | 
7 | Nc1ccc([N+](=O)[O-])cc1 | inconclusive: 12.3 µM [cytotoxic, partial curve, poor fit] | inconclusive: 24.3 µM [falling, partial curve, poor fit] | inconclusive: 17.4 µM [phenotype inactive, partial curve, poor fit] |  | inconclusive: -24.3% | inconclusive: 1.38 µM [cytotoxic, full curve, poor fit] | inconclusive: 54.9 µM | inconclusive: 61.6 µM [rising, partial curve, poor fit] | inconclusive: 2.19 µM [cytotoxic, single point] |  |  | inconclusive: 5.49 µM [cytotoxic, full curve] | 
8 | CCCCCCCCn1sccc1=O | active: 7.78 µM and active: 5.13 µM | inconclusive: 551 nM [activator, partial curve] and inconclusive: 5.13 µM [fluorescent, full curve] | active: 6.18 µM and active: 4.57 µM |  |  | active: 19.5 µM and active: 22.9 µM | inconclusive: 1.38 µM [falling, full curve] and inconclusive: 1.82 µM [falling, full curve] | active: 49.1 µM and active: 3.63 µM | inconclusive: 61.8 µM [single point] and inconclusive: 64.6 µM [single point] |  |  | active: 873 nM and active: 1.15 µM | 
